Source: the supplement of paper PMC11417369
Some of the results follow.

The sequences below were run on PfAP2-HC AP2 domain (GST-tagged) (assay: gcPBM binding intensity (ln(normalized median fluorescence intensity)); higher = stronger DNA binding).
In short: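 GST-tagged P. falciparum DNA-binding domains, expressed in E. coli (about 25 μg on average), were applied for 1 h to an Agilent 4 × 180k array of primer-extended double-stranded 36-bp intergenic genomic probes plus negative controls. The binding buffer was 1× PBS with 1% milk, 0.2 mg/ml BSA, 0.5% salmon testes DNA and 0.03% Triton X-100. Bound protein was detected with Alexa488 anti-GST antibody and scanned at 488 nm. Binding intensity is the highest Masliner-normalised natural-log median intensity across replicate spots of either probe orientation.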

| Sequence | gcPBM binding intensity (ln) |
| --- | --- |
| TTCGACGAGAGCAAGTGTACTCTTGAATAATTTATA [XGTACX_site7613] | 9.42 |
| TGTTATATATTATATACATGCACAAAAGCAACACAA [TGCATGCA_site1009] | 9.63 |
| ATATATATATACATACGTACACACAAATATTAAAAT [XGTACX_site4007] | 9.95 |
| TCCTATATCACAAATGTGCACAGAAAAAAAAAATAT | 9.73 |
| AATATATATAATAATTGTACAATACGTATGTTATAT [XGTACX_site8745] | 9.81 |
| TGTATACATAATATTTGTACATATTGTTATATATAT [XGTACX_site740] | 9.75 |
| TTATAAAAAAAAAAAAAAAAGAAAATGAATTCACGA [CACACA_negctrl_site1248] | 9.34 |
| AAAAATAAAAAAAACACACATACCTTATTTTTGTTC [CACACA_site2634] | 9.88 |
| AATTAAAATTTTTTTTTTTTTTTTTTTTTTCTATTA [CACACA_negctrl_site1585] | 9.16 |
| TATATATAGAAACACACACACAAAAAAAAAAAAAAA [CACACA_site1506] | 10.3 |
| TATATATCCTTCTATGCATGCATATGGATAGATTTC [TGCATGCA_site58] | 9.48 |
| ATTTAAAAAACTTTTAGCAAAAAAAAAAAATAATAA [TGCATGCA_negctrl_site191] | 9.44 |
| AAATTGATATTATATATATATATATATATATATATA [GTGCAC_negctrl_site482] | 9.47 |
| ATATTTATGACCGTACGTACCTAACAATACAATCAA [XGTACX_site4511] | 9.68 |
| TGAATTTCAAAACAGTGTACATTAATATATATATAA [XGTACX_site7951] | 9.55 |
| ATAATATATATATGTAGTACGTATATAATTTTAATA [XGTACX_site5228] | 9.88 |
| AAAATTCTTATAAGATGTACAATTTGTAACACTATA [XGTACX_site510] | 9.57 |
| TCACATACATTACTTACACACCATATTAAGATATAC [CACACA_site4415] | 9.84 |
| AAATAAATATATAATACACACAAAAATATAAAATGT [CACACA_site3711] | 10.3 |
| TTTTGTATATATTATTGTACTTTTAATATAGATCGT [XGTACX_site5830] | 9.64 |
| TTATACTCACGTTACACACACACAATATATATATAT [CACACA_site4137] | 10.3 |
| TTTTTTACAACACGAAAATGAACAATTATAATAAAT [TGCATGCA_negctrl_site301] | 9.52 |
| TAATCATAAAAAAATACACACATATAAAATATAGAT [CACACA_site7020] | 9.9 |

| Sequence | gcPBM binding intensity (ln) |
| --- | --- |
| ATATTTATAAATTGCACACAAATAATAACATTATAT [CACACA_site5322] | 9.76 |
| AAAAGTTAAGCAACAAATTTTATTTCTTATATATAA [TGCATGCA_negctrl_site134] | 9.41 |
| TTATACACTGATAAAAGTACATTTGTATGTTTTTTT [XGTACX_site8959] | 9.56 |
| ATCTAAAAATTTTACGCACACAAGTAAAAAAAAAAA [CACACA_site2485] | 9.83 |
| TTTTATAATCATAATAGTACTTTTTCTTTTTCACAT [XGTACX_site5017] | 9.71 |
| AGTAAAAAAAATATCTGTACATATTAATATAAATGT [XGTACX_site6234] | 9.79 |
| AAATATTATTCTTTTATTTTTAAACATATAATTATA [GTGCAC_negctrl_site136] | 9.45 |
| TTTTTTGTATTTTTCACACACTCTCTATCTCTCTCA [CACACA_site2095] | 9.94 |
| AAAAAAAAAAAAAAAACACACATATATATTATTGTA [CACACA_site3979] | 9.68 |
| GAATATTACATGTATTGTACAGGTAATGTTAAAAAT [XGTACX_site8274] | 9.7 |
| TATATATATATAATTACACACAATGTTCTATATATA [CACACA_site3235] | 9.8 |
| TATTTATTTAATTACACACGAACATATAACCATTTC [CACACA_site211] | 9.86 |
| TGTAGACTACATAGTAGTACATAATATATACATATA [XGTACX_site367] | 9.72 |
| TTTTCTTTTAAACATATATATATATATATATATATA [XGTACX_negctrl_site559] | 9.7 |
| GTTGAAAAAAAAAATGCACACGCATACATATAATAT [CACACA_site8117] | 9.99 |
| ATTTCTTTGCTTTTCAAACACACAAAAGTTATTATA [CACACA_site520] | 9.71 |
| TCATTCCATACTTTAACACACAAATATATTTAATCC [CACACA_site145] | 9.85 |
| TTTTTTTTTTTGTTTTGTACATAAATTGCAACCAAT [XGTACX_site8949] | 9.55 |
| ATATATATATATATATGTACATATTCACTTATATTT [XGTACX_site5324] | 9.65 |
| TAACATAAATCCATACGTACCTATATATATATAATA [XGTACX_site2626] | 9.58 |
| ATTTATATTAAAAGTGTGCACTTTTTTTTTTTTTTT | 9.58 |
| TAAGTAAACTTTCTATGTACATATTTTCAAATATTA [XGTACX_site6260] | 9.66 |
| CTTATATATACATATACACACACACCCATATATATA [CACACA_site8705] | 10.5 |

| Sequence | gcPBM binding intensity (ln) |
| --- | --- |
| GGTATAATTCATATAACACACATTTCAATGTTAAAA [CACACA_site2172] | 9.66 |
| TGTATTAATTTGTAATGTACACATATATGTATTATA [XGTACX_site4152] | 9.74 |
| CCAAAATTTATAAATTGTACATATTTTTAAATTCTT [XGTACX_site833] | 9.51 |
| ATAAAAGAATTAAATAATCAAAATGATTATTTTATA [CACACA_negctrl_site466] | 9.39 |
| GATAAATAATAATAAGGTACACATAAAATATTCCTT [XGTACX_site2963] | 9.71 |
| TTAACAAAATTTTTAACACACAAAAAAAAAAAAAAA [CACACA_site1828] | 9.39 |
| ATGTAGACAACATATGAACACACAAAATATTTTTTT [CACACA_site8955] | 9.91 |
| TCTTTTGTTTAACCTACATGCAGAATATAAGTCTTC [TGCATGCA_site99] | 9.51 |
| ATTCATTATTCACCTTGTACACAAATGATTATCGTA [XGTACX_site455] | 9.77 |
| TGTTTAAAAATAATTTGTACATATATTTTATTTCAT [XGTACX_site1272] | 9.64 |
| ATAAAGAAATAAAGTTGTACATTATATATATATATA [XGTACX_site7729] | 9.61 |
| AATAATTTTTTAAACACACACACATATATATATATA [CACACA_site95] | 10.7 |
| AATACATACGGACACACACACACATATATATATATA [CACACA_site5884] | 11.6 |
| TATAAAAATAGGATTTGTACATATAAAAAAGGAAAA [XGTACX_site8678] | 9.73 |
| TAATATAAAAAAGGTACTACACGAAGGAATAAAAAT [XGTACX_site6872] | 9.9 |
| TATAAATATATGTATGCACACATTTTTTTTGGAAAA [CACACA_site1070] | 9.62 |
| CAGAAATAGAGATACACACACACATATATTTATGTA [CACACA_site3968] | 11.3 |
| TTTGTTCTTTTAATGTGTACATATACACTTGTAATA [XGTACX_site2635] | 9.74 |
| AAAAAAAAAAGAAACACACACATTTGTCTATAATAT [CACACA_site7063] | 10.2 |
| ATGTATGCAAAAATGGTGCATATTAAATGTATAACA [GTGCAC_site9722] | 9.87 |
| TGACCTTATGTGTTTTGAAGGGGAAAGGAAATGCGC [XGTACX_negctrl_site411] | 9.44 |
| ATAATATATACTAAAAGTACATATTATAATAAATTA [XGTACX_site6749] | 9.57 |
| GAAATAATTGTTAAAGGTACACAATGCATATACAAT [XGTACX_site238] | 9.82 |

| Sequence | gcPBM binding intensity (ln) |
| --- | --- |
| ACTTCATTTTTTTTATGTACACAGAAGATTTACAAA [XGTACX_site4021] | 9.66 |
| AGGAAAATAGAAAAAGCACACATATATTTTGGAATG [CACACA_site8080] | 9.92 |
| ACATATGTATGAATATCAAAAAATCCCTATTTAATG [GTGCAC_negctrl_site27] | 9.64 |
| AAAATAATAATTAATACATGCATTAATTCTTTTTTT [TGCATGCA_site741] | 9.53 |
| TATATAAATAAATGTGTACACACATTAAAATCAAAC [CACACA_site8733] | 10.1 |
| CATATATTATTTAATAGTACATATAAAAGAAAAAAA [XGTACX_site4643] | 9.55 |
| TATATACATATATATACACACATATATATATTTTAT [CACACA_site3788] | 9.88 |
| ATTTATTTATTTTTTTGTACGAATGTTGCACATATA [XGTACX_site4101] | 9.73 |
| ATAGAAACATATTGACGTACAGTATAATAATACAGT [XGTACX_site197] | 9.91 |
| AAATCAACTTATTTTTGTACATATATTTATTATATA [XGTACX_site2925] | 9.85 |
| GAAAAATTAATAAATAAACACACATATATATATATA [CACACA_site8835] | 9.82 |
| TCTTTATGTAAGGTCTTCCACAAAAAAATTAAAAAA [TGCATGCA_negctrl_site229] | 9.1 |
| ATATATTATAGAGGTGTGCACTACATACATTATAAT [GTGCAC_site9991] | 9.96 |
| ATTTTCACCTGAACGGTGCATATTTAATTTTAGGTT | 9.83 |
| ATATATGTACAAATTGTGCGCAATAATTTTGTCTTT | 9.77 |
| ATACATATATATGTGTGTACATATGTGTATACATTT [XGTACX_site6544] | 9.92 |
| TTTTATAAATCTAAACGTATCTAAATGAATAATTAA [GTGCAC_negctrl_site44] | 9.28 |
| ATATGTATTAAGTGTACACATATAATGGGTTTGTTA [CACACA_site5682] | 9.85 |
| GAATGAAAATAAAATTGTACACATATCTATATCTAT [XGTACX_site2642] | 9.63 |
| AAAAAAAAAAAAAGTTGTACATTATTTTCCTAATTC [XGTACX_site7998] | 9.37 |
